Over roughly 13,000 compounds, “IFI” has its median near 4; the highest 2% begin near 17. The list shows a part of the results.
assay: GSK_TCMDC: Inhibition Frequency Index (IFI). The number of non-kinase HTS assays where a compound showed > 50 % inhibition, expressed as a percentage of the number of such assays in which the compound was tested (-0 is zero); format: functional

SMILES | IFI [%]
CCN(CC)CCN(Cc1ccc(-c2ccc(C(F)(F)F)cc2)cc1)C(=O)Cn1c(CCc2cc(F)cc(F)c2F)nc(=O)c2ccccc21 | 9.79
COc1ccc2c(c1C1CCN(CCCCNC(=O)c3ccc(-c4ccc(Cl)cn4)cc3)CC1)CCCC2 | 4.48
CC[C@H](C)CNC(=O)c1cccc(-c2cccc(CN3CCC(N4CCCC4)CC3)c2)n1 | 10.4
COCCOc1cc(C)c(C2CCN(CCCCNC(=O)c3ccc(NC(=O)c4ccc(Cl)cc4)cc3)CC2)cc1C | 1.52
c1cc(-c2ccc(CN3CCCCC3)cc2)cc(-c2nc3ccccc3[nH]2)c1 | 1.41
c1ccc2[nH]c(-c3ccc(-c4ccc(CN5CCN(CCN6CCOCC6)CC5)cc4)s3)nc2c1 | 4.23
O=c1cc(NCCC(CNCc2ccc(Br)o2)NCc2cc(Br)cc(Br)c2)[nH]c2ccccc12 (stereo unspecified) | 5.88
COc1ccc2c(c1CNCCCCCCNCc1c(OC)ccc3c1CCCC3)CCCC2 | 11.9
Cc1cccc(CNc2nc(C)cc(NCCC(=O)Nc3ccccc3)n2)c1 | 7.5
CN(C)CCOc1cc(NC(=O)Nc2ccc(-c3ccncc3)c(Cl)c2)ccc1I | 5.26
CC(C(=O)Nc1ccc(Br)cc1Br)N1CCN(C(=O)c2ccco2)CC1 (stereo unspecified) | 2
COc1ccc2c(=O)c(I)c(C)[nH]c2c1 | 0.74
c1cc(-c2ccc(CNCCCN3CCOCC3)cc2)cc(-c2nc3ccccc3[nH]2)c1 | 2.86
Cc1ccc(C(=O)Nc2ccc(C)c(OC3CCN(Cc4ccco4)C3)c2)cc1 (stereo unspecified) | -0
CN1C(C)(C)CC(NC(=O)c2ccc(-c3cc4cc(Cl)c(Cl)cc4[nH]3)o2)CC1(C)C | 0.72
CCCCC1=CC2C(=O)C(C(=O)OC)=CN=C2C=C1OCc1ccccc1 (stereo unspecified) | -0
CN(C)CC1CCCN1Cc1ccccc1-c1cnn(C)c(=O)c1Oc1ccccc1F (stereo unspecified) | -0
CCCCCC(C)C(C)c1cc(O)c2c(c1)OC(C)(C)C=C2c1cc[n+]([O-])cc1 (stereo unspecified) | 0
CC12CCC(CN(CC(O)Cn3c4ccccc4c4cc(I)ccc43)C1)C2(C)C (stereo unspecified) | 0

SMILES | IFI [%]
Nc1nc2c(ncn2OC[C@H]2COP(=O)(O)CO2)c(=O)[nH]1 | 0
CNCCNCc1ccc(-c2cccc(-c3nc4cc(F)ccc4[nH]3)c2)cc1 | 8.91
CN(C)S(=O)(=O)n1ccc2c3c(N)nc(N)nc3ccc21 | 4
Cc1cccc2nc(-c3ccc(-c4ccc(CN5CCN(CCO)CC5)cc4)s3)[nH]c12 | 7.84
c1ccc(CCNCc2ccc(-c3ccc(CNC4CCN(Cc5ccccc5)CC4)cc3)nc2)cc1 | 3.7
O=C(Nc1ccc([N+](=O)[O-])cc1)c1nn(-c2ccccc2)cc1/N=C/c1cccc(O)c1 | 2.22
Cc1noc(-c2ccccc2)c1NC(=O)NC1CCN(CCCCCNC(=O)/C=C/c2ccc(Cl)c(Cl)c2)CC1 | 2.38
COc1cc(-c2nc(-c3ccc(C(=O)c4ccc(F)cc4)cc3)c(-c3ccccc3)[nH]2)cc(OC)c1O | 5.07
CCNc1cc(C(=O)N[C@@H](Cc2ccccc2)[C@H](O)CNC(C)(C)Cc2cccc(OC)c2)cc(N2CCCC2=O)c1 | 2.17
O=C(Nc1cccnc1)c1ccc(-c2cc3ccncc3cc2OC2CCNCC2)s1 | 2.7
O=C(Nc1cccc(-c2nn3ccccc3c2-c2ccnc(Nc3cccc(F)c3)n2)c1)c1c(F)ccc(F)c1Cl | 4.26
CCCc1ccc(NC(=O)c2ccc(CN3CCCN(CC4CCCCC4)CC3)cc2)cc1 | 14.4
COc1ccc2nccc([C@@H](O)CN3CCC(NC(=O)COc4nc(SCc5ccc(F)cc5)nc5c4CCC5)CC3)c2c1 | 2.14
Cc1c(CNCCCNc2nc3ccccc3[nH]2)[nH]c2cc(Cl)cc(Cl)c12 | 7.69
CC(C)(C)c1ccc(NC(=O)c2ccc(CN3CCCN(Cc4cccc(O)c4)CC3)cc2)cc1 | 16.9
N#Cc1ccc2c(c1)CCN(CCC1CCC(NC(=O)/C=C/c3cccc4cc[nH]c34)CC1)CC2 (stereo unspecified) | 3.73
CCOc1cc(C(=O)NCCN(CC)c2cccc(C)c2)ccc1-c1nc2cc(Cl)ccc2[nH]1 | 0.71
CCCNC(=O)C1CCN(C(c2ccccc2)c2ccc(Cl)c(Cl)c2)CC1 (stereo unspecified) | 2.74
O=C(c1cc(C(=O)Nc2ccccc2)c(=O)n(-c2ccccc2)c1)c1cc(Cl)ccc1O | 5.5

SMILES | IFI [%]
CCCC1(C)CSc2ccccc2C(c2ccccc2)N1 (stereo unspecified) | 1.38
Cc1cc(N2CCN(C)CC2)nc2ccc(NC(=O)c3cccc(N(C)C)c3)cc12 | 4.31
CN(C)CCNC(=O)c1cccc(-c2cnc3ccc(NCc4ccc(Cl)c(Cl)c4)nn23)c1 | 9.02
COc1ccc2nccc([C@@H](O)CN3CCC(NCc4cnc5snnc5c4)C(F)C3)c2c1 (stereo partly specified) | 4.65
Cc1c(S(=O)(=O)Nc2ccc3nccc(N4CCN[C@H](C)C4)c3c2)sc2ccc(Cl)cc12 | 4.44
CN(C(=O)c1ccccc1)C1c2cc(C#N)ccc2OC(C)(C)C1O (stereo unspecified) | 0.74
CCc1ccc(-c2nc3cc(NC(=O)c4cc([N+](=O)[O-])cc([N+](=O)[O-])c4)ccc3o2)cc1 | -0
COc1ccc(CNCc2ccccc2)cc1-c1ccc(OC)c(S(=O)(=O)NCCN2CCCC2)c1 | 5.71
CC1CN(c2cccc3c2nc(-c2cncc(C#N)c2)n3CCNCc2ccccc2)CC(C)O1 (stereo unspecified) | -0
O=C(Nc1ccc(-c2cccc(-c3nc4cc(F)ccc4[nH]3)c2)cc1)Nc1ccc(F)c(F)c1F | 5
CC1CCC2(CC1)N=C(N)N=C(N)N2OCc1ccc(Br)c2ccccc12 (stereo unspecified) | 9.35
c1ccc(-c2ccc3c(Nc4ccc5[nH]ccc5c4)ccnc3c2)nc1 | 1.42
Cc1ccc2[nH]c(-c3cc(-c4ccc(OCc5ccccc5)cc4)cnc3N)nc2c1 | 3.08
CSc1nc2nc(C)c(Cc3cccc(C(F)(F)F)c3)c(C)n2n1 | 1.37
CCOc1cc(C(=O)N[C@@H](Cc2ccccc2)[C@H](O)CNCc2cccc(OC)c2)cc(N2CCCCS2(=O)=O)c1 | 4.51
CCN1CCN(Cc2c(O)ccc3c(=O)c(Oc4cc(C)cc(C)c4)c(C(F)(F)F)oc23)CC1 | 1.5
COc1cc(Nc2nccc(N3CCC(NC(=O)c4cccc(C#N)c4)C3)n2)cc(OC)c1OC (stereo unspecified) | 3.08
CCOC(=O)c1cnc2c(OC)cc(OC)c(Cl)c2c1Nc1ccccc1 | 2.8

From ChEMBL document CHEMBL1157539, “Thousands of chemical starting points for antimalarial lead identification” (Nature, 2010)
